{"source": "PubChem BioAssay (Tox21)", "note": "The inconclusive results got no clear call from the source; some entries with a clear call stand among them for comparison. Potencies of inconclusive entries are left out as doubtful fits. Active and inactive are the calls of the source. Calls follow the shape of the dose curve; as a rule, active = well fitted activation curve with a large enough effect in the signal ratio in the repeat runs (not every such curve was filed as active); inconclusive = weak or mixed curves, or effect the other way; inactive = flat fitted curve, though single readings scatter; the % refers to the signal ratio. % is scaled to controls: 0 for no effect and ±100 for the full control effect; potency is read from the fitted curve at half-maximal effect; tags tell the direction and shape of the fitted curve or compound fluorescence and quenching.", "data": [{"biological_target": "Estrogen receptor beta (Homo sapiens) (UniProt Q92731)", "sequence (Q92731 whole entry, looked up)": "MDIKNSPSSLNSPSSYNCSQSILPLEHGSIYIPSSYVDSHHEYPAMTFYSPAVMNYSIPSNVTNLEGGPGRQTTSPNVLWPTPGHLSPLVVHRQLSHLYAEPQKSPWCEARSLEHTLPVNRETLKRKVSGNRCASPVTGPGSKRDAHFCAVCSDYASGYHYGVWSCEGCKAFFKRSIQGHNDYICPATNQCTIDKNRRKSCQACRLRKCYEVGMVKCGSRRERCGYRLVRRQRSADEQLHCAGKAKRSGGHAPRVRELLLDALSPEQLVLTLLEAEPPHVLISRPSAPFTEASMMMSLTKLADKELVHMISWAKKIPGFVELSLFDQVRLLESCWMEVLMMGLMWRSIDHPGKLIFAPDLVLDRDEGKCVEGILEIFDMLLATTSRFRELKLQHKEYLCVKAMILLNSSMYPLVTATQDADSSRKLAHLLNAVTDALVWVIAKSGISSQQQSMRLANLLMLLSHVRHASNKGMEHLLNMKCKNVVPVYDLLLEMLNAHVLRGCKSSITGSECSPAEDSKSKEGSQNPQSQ", "test": "qHTS assay to identify small molecule agonists of the estrogen receptor beta (ER-beta) signaling pathway (AID 1259377)", "settings": "ER-beta-UAS-bla HEK293T, beta-lactamase FRET ratio, 16 h; activation: at 92.4 µM (top of the series) unless noted", "how_it_was_run": "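Ratiometric beta-lactamase FRET read-out came after 2 h substrate loading at room temperature. It followed 16 h compound treatment at 37C of GripTite HEK293T cells carrying a UAS-bla reporter, plated in 2% charcoal-stripped FBS medium.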", "values": [{"smiles": "N#CCCSCCC#N", "activation": "inconclusive: 2.18%"}, {"smiles": "Cc1ccccc1[N+](=O)[O-]", "Potency": "inconclusive [activator, partial curve]"}, {"smiles": "CSc1nnc(C(C)(C)C)c(=O)n1N", "Potency": "inconclusive [activator, partial curve, poor fit]"}, {"smiles": "CC(C)(c1cc(Cl)c(O)c(Cl)c1)c1cc(Cl)c(O)c(Cl)c1", "Potency": "inconclusive [rising, full curve]", "activation": "inconclusive: 4.2%"}, {"smiles": "CNC(=O)CSP(=O)(OC)OC", "Potency": "inactive"}, {"smiles": "CCCCC(CC)COC(=O)c1ccccc1C(=O)OCC(CC)CCCC", "note": "(stereo unspecified)", "Potency": "inconclusive [falling, partial curve, poor fit]"}, {"smiles": "O=C(N[C@H]1CN2CCC1CC2)c1cc2ccoc2cn1", "Potency": "inactive"}, {"smiles": "CCOC(=O)C1(c2ccccc2)CCN(CCc2ccc(N)cc2)CC1", "Potency": "inactive"}, {"smiles": "C[C@]12CC[C@@H]3c4ccc(OC(=O)N(CCCl)CCCl)cc4CC[C@H]3[C@@H]1CC[C@@H]2O", "Potency": "active: 0.266 µM"}, {"smiles": "c1ccc2c(c1)-c1cccc3cccc-2c13", "Potency": "inconclusive [activator, full curve]"}, {"smiles": "COc1ccc2[nH]cc(CCN(C(C)C)C(C)C)c2c1", "activation": "inconclusive: 4.18%"}, {"smiles": "NCC(O)c1ccc(O)cc1", "note": "(stereo unspecified)", "Potency": "inconclusive [activator, partial curve]"}, {"smiles": "CCCCCCC1CCOC1=O", "note": "(stereo unspecified)", "Potency": "inactive"}, {"smiles": "COP(=S)(OC)Oc1ccc([N+](=O)[O-])cc1", "Potency": "inconclusive [activator, full curve, poor fit]"}, {"smiles": "Nc1ccncc1", "Potency": "inconclusive [activator, single point]"}]}]}
